From PubChem BioAssay AID2147 (National Center for Advancing Translational Sciences (NCATS), 2009)
“And” between values parts separate entries of the source, which are not always exact repeats. Identical values can stand only once. Out of some 230,000 compounds screened, about 3,600 (1.6%) were called active. This list was built around the results that the source calls inconclusive (neither active nor inactive); the mix of calls is not that of the screen. The call rests on the fitted dose curve; in most records, active means well fitted inhibition curve with a large enough effect (not every such curve was filed as active); inconclusive means small, poorly fitted or top-dose-only effect, or another doubt; inactive means no such curve, though single readings can be large or run the other way. Where the call is inconclusive, the potency comes from a doubtful curve fit.

target: Lysine-specific demethylase 4E (Homo sapiens) (UniProt B2RXH2); assay: qHTS Assay for Inhibitors of Human Jumonji Domain Containing 2E (JMJD2E); conditions: JMJD2E catalytic domain, FDH-coupled NADH fluorescence (FDH is formaldehyde dehydrogenase); series mostly up to 57.1 µM
Further: nearly all actives have a fitted effect of over 50% in size.
Potency means the concentration at half of the fitted maximal effect; tags describe the fitted curve by direction and shape.

Chain of UniProt B2RXH2 (B2RXH2 whole entry, looked up, the tested form may be a part): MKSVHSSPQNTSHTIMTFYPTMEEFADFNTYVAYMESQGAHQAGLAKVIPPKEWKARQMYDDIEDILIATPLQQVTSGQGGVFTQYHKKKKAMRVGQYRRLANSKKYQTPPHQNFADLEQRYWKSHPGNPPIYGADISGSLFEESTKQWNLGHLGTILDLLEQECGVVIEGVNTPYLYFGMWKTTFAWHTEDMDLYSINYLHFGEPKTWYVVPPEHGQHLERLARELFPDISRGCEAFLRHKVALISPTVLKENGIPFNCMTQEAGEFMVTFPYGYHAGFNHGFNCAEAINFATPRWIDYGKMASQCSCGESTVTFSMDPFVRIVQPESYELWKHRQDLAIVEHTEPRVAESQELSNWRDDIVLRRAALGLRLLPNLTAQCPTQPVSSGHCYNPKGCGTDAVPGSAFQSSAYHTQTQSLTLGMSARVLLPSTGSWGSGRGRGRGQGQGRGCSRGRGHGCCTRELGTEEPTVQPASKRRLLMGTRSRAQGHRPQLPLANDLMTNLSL

Row | SMILES | Potency
1 | CCC(C(=O)Nc1cc(C)on1)c1ccccc1 (stereo not drawn) | inactive
2 | C/C(=C\C(=O)c1cccnc1)Nc1ccc(O)cc1 | inconclusive: 4.47 µM [inhibitor, full curve]
3 | O=C(Nc1ccc(F)cc1)c1cccnc1NCCc1ccccc1 | inconclusive: 39.8 µM [inhibitor, single point]
4 | Cc1ccc(CC(=O)NCc2ccc3c(c2)OCO3)cc1 | inactive
5 | Cc1cc2cc(CN(Cc3ccc4c(c3)OCO4)C(=O)c3cnccn3)c3nnnn3c2cc1C | inactive
6 | CC(C)N1CCC(=NNc2ccc(S(=O)(=O)N3CCOCC3)cc2[N+](=O)[O-])CC1 | inconclusive: 35.5 µM [inhibitor, single point]
7 | O=C(O)CCCn1c(=O)[nH]c2ccccc2c1=O | inconclusive: 39.8 µM [inhibitor, single point]
8 | Cc1ccccc1OCC(=O)N/N=C/c1c(C)nn(-c2ccccc2)c1Cl | inconclusive: 12.6 µM [inhibitor, partial curve]
9 | CCOc1ccc(C2c3[nH]c4ccccc4c3CCN2Cc2cn(CC)nc2C)cc1 (stereo not drawn) | inconclusive: 39.8 µM [inhibitor, single point]
10 | COc1nc(N=C(N)N)nc2c(C)cccc12 | inconclusive: 31.6 µM [inhibitor, partial curve]
11 | O=Cc1ccc(O)c2ncccc12 | active: 3.16 µM
12 | Fc1ccc(/C=C\c2nccc3c2[nH]c2ccccc23)cc1 | inconclusive: 28.2 µM [inhibitor, partial curve]
13 | CC(C(=O)O)N1C(=O)/C(=C/C=C/c2ccco2)SC1=S (stereo not drawn) | active: 0.891 µM
14 | COc1ccc2[nH]c3c(=O)n(Cc4ccc(C(=O)N5CCCC5)cc4)c(=S)[nH]c3c2c1 | inconclusive: 3.16 µM [inhibitor, partial curve]
15 | C=CCOn1c(=O)c(-c2cccs2)[n+]([O-])c2ccccc21 | inconclusive: 22.4 µM [inhibitor, partial curve]
16 | O=C(C1=C[C@@H](c2ccccc2)C[C@@H](OCc2ccc(CO)cc2)O1)N1CCCCCCC1 | inactive
17 | CC1CCN(c2nc3c(c(=O)[nH]c(=O)n3C)n2CC(C)CSc2nnnn2-c2ccccc2)CC1 (stereo not drawn) | inactive
18 | Cc1ccc2oc(-c3cccc(NC(=S)NC(=O)/C=C/c4ccco4)c3)nc2c1 | inconclusive: 39.8 µM [inhibitor, single point]
19 | CN(CCc1ccccn1)S(=O)(=O)c1ccc2c3c(cccc13)C(=O)N2 | inconclusive: 31.6 µM [inhibitor, partial curve]
20 | Cc1ccc(NC(=O)c2ccccc2)cc1-n1cnnn1 | inconclusive: 20 µM [inhibitor, single point]
21 | Cc1cc2c(cc1C)N(C(=O)CSC1=NCCS1)C(C)(C)c1ssc(=S)c1-2 | inactive
22 | N#C/C(=C(/O)c1ccco1)c1nc2ccccc2s1 | inactive
23 | COC(=O)C1=CN(CC2CCCO2)C=C(C(=O)OC)C1c1cccc(O)c1 (stereo not drawn) | inconclusive: 31.6 µM [inhibitor, partial curve]
24 | CCCCn1nnc(NC(=S)NC(=O)c2ccc(-c3cccc(Cl)c3Cl)o2)n1 | inactive
25 | Cc1cc(C(=O)OC2CCOC2=O)c2ccccc2n1 (stereo not drawn) | inconclusive: 31.6 µM [inhibitor, single point]

Row | SMILES | Potency
26 | COC(=O)c1ccccc1N=C(SC)N(C)C | inconclusive: 28.2 µM [inhibitor, partial curve]
27 | COc1ccccc1NC(=O)CSc1nc(O)cc(=O)n1-c1ccccc1OC | inconclusive: 28.2 µM [inhibitor, single point]
28 | COc1ccc(-n2c(C)nc3cc(C(=O)NCCN4CCOCC4)ccc32)cc1 | inactive
29 | NC(=O)c1oc2ccccc2c1NC(=O)C1COc2ccccc2O1 (stereo not drawn) | inconclusive: 35.5 µM [inhibitor, single point]
30 | CC(C)c1ccc(N2C(=O)CC(Sc3ncn[nH]3)C2=O)cc1 (stereo not drawn) | active: 1.58 µM
31 | O=C(Nc1nnc(-c2ccco2)o1)c1ccc2ccccc2c1 | inconclusive: 31.6 µM [inhibitor, single point]
32 | O=C(CSc1nnc(-c2ccccc2F)n1CCc1ccccc1)Nc1ccc2[nH]c(=O)[nH]c2c1 | inactive
33 | N#C/C(=C\c1ccc(O)c(O)c1)C(=O)NCc1ccccc1 | active: 15.8 µM and active: 20 µM
34 | O=c1nc2n(Cc3ccccc3)c3ccccc3cc-2c(=O)[nH]1 | inconclusive: 31.6 µM [inhibitor, partial curve]
35 | O=C(O)C1Nc2c(C(=O)N3CCOCC3)cccc2C2C=CCC12 (stereo not drawn) | inconclusive: 28.2 µM [inhibitor, single point]
36 | Cc1cc(NC(=O)c2cccc(C(=O)Nc3cc(C)on3)n2)no1 | inconclusive: 39.8 µM [inhibitor, single point]
37 | NC(=S)NNC(=O)c1cccc(Br)c1 | inactive
38 | COC(=O)/C(C#N)=C1/C=Cc2ccccc2N1C | inactive
39 | CC1(OC(=O)C2CCCC2)C(=O)C=C2C=C3CCCCN3C=C2C1=O (stereo not drawn) | inconclusive: 28.2 µM [inhibitor, single point]
40 | CCN(CC)CCNC(=O)c1cc(-c2ccco2)nc2ccccc12 | inconclusive: 28.2 µM [inhibitor, partial curve]
41 | Cc1cc(/C=c2/sc3nc4ccccc4n3c2=O)c(C)n1-c1ccccn1 | inconclusive: 28.2 µM [inhibitor, single point]
42 | CC(C)c1ccc2oc(-c3ccc(NC(=O)c4ncn[nH]4)cc3)nc2c1 | inconclusive: 25.1 µM [inhibitor, partial curve]
43 | CCOC(=O)N1CCN(C(=O)c2ccc(CSc3ccc(Cl)cc3)cc2)CC1 | inactive
44 | CCOC(=O)C1CCN(C(=O)Nc2ccc3nccnc3c2)CC1 | inconclusive: 28.2 µM [inhibitor, partial curve]
45 | COc1ccc2cc(C#N)c(Nc3cccc(F)c3)nc2c1 | inconclusive: 35.5 µM [inhibitor, partial curve]
46 | COc1ccc(NCC(=O)N/N=C(\C)c2cc3ccccc3o2)cc1 | inconclusive: 25.1 µM [inhibitor, single point]
47 | Cc1ccc(C(=O)O)cc1N=Cc1cc(Br)cc(Br)c1O | inconclusive: 28.2 µM [inhibitor, partial curve]
48 | COC(=O)c1cc2c([nH]c3ccccc32)c(C)n1 | inconclusive: 28.2 µM [inhibitor, partial curve]
49 | O=C(COC(=O)c1cc(NS(=O)(=O)c2cccs2)ccc1O)Nc1ccc(F)c(F)c1F | inconclusive: 35.5 µM [inhibitor, single point]
50 | COC(=O)c1c(N)n(CCCN2CCOCC2)c2nc3ccccc3nc12 | inconclusive: 22.4 µM [inhibitor, partial curve]

Row | SMILES | Potency
51 | CCn1ccc(-c2ccccc2)c(C#N)c1=O | inconclusive: 31.6 µM [inhibitor, partial curve]
52 | CCN(CC)c1ccc(/C=N/NC(=O)c2c(Cl)c(C)nn2C)cc1 | inconclusive: 28.2 µM [inhibitor, single point]
53 | COC(=O)c1cn[nH]c1NC(=S)Nc1ccc(C)cc1Cl | inactive
54 | CCCCC(=O)NNC(=S)NC(=O)c1ccc([N+](=O)[O-])cc1 | inconclusive: 20 µM [inhibitor, partial curve, poor fit]
55 | Cc1ccc(CNC(=O)CSc2ccc(-c3cccs3)nn2)cc1 | inconclusive: 39.8 µM [inhibitor, single point]
56 | O=C(Nc1ccon1)c1cc(-c2ccccc2)nc2ccccc12 | inconclusive: 35.5 µM [inhibitor, single point]
57 | O=C(Nc1cccc2nsnc12)c1ccc(-c2ccc(Br)cc2)o1 | inactive
58 | Oc1ccc2ccccc2c1CN1CCOCC1 | inconclusive: 11.2 µM [inhibitor, partial curve]
59 | O=C(CCCN1C(=O)CCC1=O)Nc1ccc(Br)cc1F | inactive
60 | CCC(COC(=O)Nc1cccc(C)c1)NC(=O)OCC(C)C (stereo not drawn) | inactive
61 | CCN1/C(=C\C=C2\C(=O)N(C)C(=S)N2C)Sc2ccccc21 | inactive
62 | O=C(c1ccc(COc2ccccc2[N+](=O)[O-])o1)N1CCCCC1 | inactive
63 | CCOC(=O)c1c(NC(=S)Nc2ccc(Cl)cc2)sc(C)c1C | inactive
64 | N#Cc1c(N)n(-c2cccc(C(=O)O)c2)c2nc3ccccc3nc12 | inconclusive: 28.2 µM [inhibitor, partial curve]
65 | N#Cc1ccccc1NC(=O)Nc1cccc(Cl)c1 | inconclusive: 28.2 µM [inhibitor, partial curve]
66 | CCOc1ccc(-n2c(SCC(=O)NCc3ccco3)nc3ccccc3c2=O)cc1 | inconclusive: 39.8 µM [inhibitor, single point]
67 | Cc1ccc(CNC(=O)c2sccc2-n2cccc2)cc1 | inactive
68 | CC(C)c1nnc(NC(=O)CSc2ncn[nH]2)s1 | inconclusive: 31.6 µM [inhibitor, single point]
69 | COc1ccccc1C1CC(c2ccco2)=NN1c1ccccc1 (stereo not drawn) | inconclusive: 25.1 µM [inhibitor, partial curve]
70 | Cc1ccc2nc(-c3ccc(SCC(=O)Nc4nc(C)cs4)nc3)[nH]c2c1 | inconclusive: 28.2 µM [inhibitor, single point]
71 | COc1ccc(-c2cc(C(=O)O)c3sc(N4CCCCC4)nc3n2)cc1OC | inconclusive: 14.1 µM [inhibitor, partial curve]
72 | N=c1c(C(=O)NCc2ccc(F)cc2)cc2c(=O)n3ccccc3nc2n1CC1CCCO1 (stereo not drawn) | inconclusive: 7.94 µM [inhibitor, full curve]
73 | O=C(N/N=C/c1ccc2c(c1)OCO2)c1cc(-c2ccccc2Cl)nc2ccccc12 | inconclusive: 39.8 µM [inhibitor, single point]
